From PubChem BioAssay AID624417 (National Center for Advancing Translational Sciences (NCATS), 2012)
Screen size: about 410,000 compounds; about 6,400 (1.6%) were called active. Inconclusive results, whose numbers are uncertain, are shown with a selection of clear calls. The call rests on the fitted dose curve; in most records, active means well fitted inhibition curve with a large enough effect; inconclusive means small, poorly fitted or top-dose-only effect; inactive means no such curve, though single readings can be large or run the other way. Potencies of inconclusive entries are left out as doubtful fits.

These compounds were tested against Glucagon-like peptide 1 receptor (Homo sapiens) (UniProt P43220) (assay: qHTS of GLP-1 Receptor Inverse Agonists (Inhibition Mode)). Settings: HEK293 GLP-1R CRE-luciferase, luminescence, 24 h, GLP-1R form is constitutively active; series mostly up to 38.3 µM.
In short: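 Inverse agonists were sought by their lowering of basal cAMP reporter luciferase output in HEK293 cells stably carrying constitutively active human GLP-1R, after 24 h compound treatment.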
Further: nearly all actives have a fitted effect of over 55% in size.
Potency means the concentration at half of the fitted maximal effect; tags describe the fitted curve by direction and shape.

UniProt P43220, sequence (P43220 whole entry, looked up): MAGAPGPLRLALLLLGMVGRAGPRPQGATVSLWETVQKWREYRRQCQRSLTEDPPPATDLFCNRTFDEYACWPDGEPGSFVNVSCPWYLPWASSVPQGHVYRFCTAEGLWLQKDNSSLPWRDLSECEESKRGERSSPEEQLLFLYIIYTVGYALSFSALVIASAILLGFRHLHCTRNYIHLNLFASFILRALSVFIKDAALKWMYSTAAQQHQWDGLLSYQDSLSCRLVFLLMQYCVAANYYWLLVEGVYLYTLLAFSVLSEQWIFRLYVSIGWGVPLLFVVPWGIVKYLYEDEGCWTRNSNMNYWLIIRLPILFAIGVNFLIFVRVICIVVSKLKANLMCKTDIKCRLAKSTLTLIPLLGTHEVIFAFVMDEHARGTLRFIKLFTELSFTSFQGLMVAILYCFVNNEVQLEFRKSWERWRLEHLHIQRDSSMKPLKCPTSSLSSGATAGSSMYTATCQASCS

**Q.** How did the Potency turn out when Cc1cn([C@H]2C[C@H](O)[C@@H](CNCc3cc(Cl)ccc3OCc3ccc(Cl)cc3)O2)c(=O)[nH]c1=O was run?
**A.** Its Potency is inconclusive [inhibitor, single point].

**Q.** Which Potency does the source give for O=C1NC[C@@H](CCCCN2C[C@H](Cc3ccc(O)cc3)N(CC3CCCCC3)C(=O)C2=O)N(Cc2ccccc2)C1=O here?
**A.** The Potency was “inactive”.

**Q.** For O=S(=O)(c1ccccc1)c1nc(-c2ccccc2Cl)oc1NCCN1CCOCC1, which Potency is on record?
**A.** The Potency was “inactive”.

**Q.** For Cc1ccc(C)c(N2CCN(S(=O)(=O)c3c(C(=O)N4CCCCC4)c(C)n(C)c3C)CC2)c1, which Potency is on record?
**A.** The Potency was inconclusive [inhibitor, single point].

**Q.** How did the Potency turn out when O=c1c2c(nc3n1CCCCC3)sc1c(O)c(Br)ccc12 was run?
**A.** The Potency was inconclusive [inhibitor, single point].

**Q.** COc1cc(/C=C2\CC(C(C)(C)C)C/C(=C\c3cc(OC)c(OC)c(OC)c3)C2=O)cc(OC)c1OC (configuration not stated) was tested. Which Potency did it give?
**A.** The Potency was inconclusive [inhibitor, partial curve, poor fit].

**Q.** With Cc1cccc(Nc2nc(-c3ccc4c(c3)OCCO4)cs2)c1 as the compound, how does the Potency read?
**A.** Its Potency is inconclusive [inhibitor, single point].

**Q.** Which Potency does the source give for O=C(Nc1cccc(C(F)(F)F)c1)c1csc([C@@H]2C[C@H](O)[C@@H](CO)O2)n1 here?
**A.** Its Potency is “inactive”.

**Q.** With CCC(C)[C@H]1CNC(=S)N1CCc1cc(C(F)(F)F)cc(C(F)(F)F)c1 (some centres not stated) as the compound, how does the Potency read?
**A.** The Potency was inconclusive [inhibitor, partial curve, poor fit].

**Q.** With COc1ccc(C(=O)NC(C)c2ccccc2)cc1Br (configuration not stated) as the compound, how does the Potency read?
**A.** Its Potency is inconclusive [inhibitor, single point].

**Q.** For C=CCc1ccc(OCCCCCN2CCOCC2)c(OC)c1, which Potency is on record?
**A.** The Potency was inconclusive [inhibitor, single point].

**Q.** How did the Potency turn out when O=C1C=C(NCCc2cc(Br)c(O)c(Br)c2)C(=O)c2ncccc21 was run?
**A.** The Potency was inconclusive [inhibitor, partial curve, poor fit].

**Q.** With CCOCc1c(C(=O)N2CCN(Cc3ccc(Br)s3)CC2)oc2ccccc12 as the compound, how does the Potency read?
**A.** Its Potency is inconclusive [inhibitor, partial curve, poor fit].

**Q.** CC(=O)c1ccc(NC(=S)N2CCN(c3ccccn3)CC2)cc1 was tested. Which Potency did it give?
**A.** Its Potency is inconclusive [inhibitor, partial curve, poor fit].

**Q.** For CC(CCc1ccccc1)NC(=O)COc1ccc(S(=O)(=O)N2CCOCC2)cc1[N+](=O)[O-] (configuration not stated), which Potency is on record?
**A.** The Potency was inconclusive [inhibitor, single point].

**Q.** CCc1nnc(N/N=C/c2cc(C)c(C)cc2C)n1N was tested. Which Potency did it give?
**A.** Its Potency is “inactive”.

**Q.** For Cc1ccc2c(=O)cc(C(=O)NCc3ccccc3)oc2c1C, which Potency is on record?
**A.** Its Potency is “inactive”.
